Publication PMC12136788
Some of the results follow.

T1: UNK ZnF1-3 (human, UniProt Q9C0B0 31-174)
T1 sequence: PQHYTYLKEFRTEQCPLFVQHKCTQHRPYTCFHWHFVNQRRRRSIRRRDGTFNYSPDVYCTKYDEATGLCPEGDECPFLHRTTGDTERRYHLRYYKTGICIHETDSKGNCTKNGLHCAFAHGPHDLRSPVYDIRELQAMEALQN

B1: chr20:42825305:42825306:-_ENSG00000132823_ENST00000255174|hu_mus|FALSE|FALSE (ssRNA)
RNA: GGGAGUUCUACAGUCCGACGAUCUUAAACCAAAGACAGUUUAAAUGAGUCUCAUAAGCUCUACUAUUGAUGGGCUGGCAUCUACAGCAUGACAAGUGUUCAAUUCAGUUACAAAUGCACAUUUGAGUUUCUUGCUGCCACAUCCAACAGAGGAUUGAGCAUCA
B2: chr7:136912400:136912401:-_ENSG00000105894_ENST00000348225|hu_hu|FALSE|FALSE (ssRNA)
RNA: GGGAGUUCUACAGUCCGACGAUCUUUUGUUUAGUAUAUAUUUUUCUCAAUUGGGAAAAAAAUCUAGGUGAAAAAAAUUACCUAACAAGAGAAGUAGUUUACAUAGUCAUAACAUUUAAAUUGCUGCCCAAAAAAUGUAAAAAACAACAGAGGAUUGAGCAUCA
B3: 136599505_136599625_684_CDS_ENSG00000029363_ENST00000527536|human|control|control (ssRNA)
RNA: GGGAGUUCUACAGUCCGACGAUCCCCUUCAGCUUUUUUGGUUUGUUUUUCCUGAGACCCUCGUCUUUUAGAAACAGGAGAUUUGCUAUAUGGGGAUGAAGAACGAGAAGAGGAUGAUCUUGGAGACCUAGAAGAUCUAUAUGACAACAGAGGAUUGAGCAUCA
B4: chr20:33128396:33128397:+_ENSG00000125971_ENST00000357156|hu_hu|FALSE|FALSE (ssRNA)
RNA: GGGAGUUCUACAGUCCGACGAUCGACACAGGGAGCCAAGAGAGUGGCUUAUUCGGUUGGAUUCUGAAUCACAAUCAGGAAAUAGUCUUUAUCUGGUGCAACCAUAAUUUCAUUUUUCUUGGAGCGAAUUCGAAGGAAGGUGAGCAACAGAGGAUUGAGCAUCA
B5: chr11:102258902:102258903:+_ENSMUSG00000006575_ENSMUST00000006750|mus_mus|motif|central (ssRNA)
RNA: GGGAGUUCUACAGUCCGACGAUCGAAAUUAACAAACUCCUCGGAAGAGUCAUCAAUGGGUUCUGCUGUGUACUUCUCGGGCAGGGUUUUCACAGAGAACCUGCACACGGUGAUCAGGUUCCUGCGCUCCACGAUCACGUUGCGCAACAGAGGAUUGAGCAUCA
B6: chr1:153198750:153198751:+_ENSMUSG00000023150_ENSMUST00000023918|perfect_dup|motif|central (ssRNA)
RNA: GGGAGUUCUACAGUCCGACGAUCUUCUGGAUUGAGAUCAUCCAACUUCACAUGAGAAACUCCAUGAGGGUCACUGUCACGGUUGAAGAUUUCAAAUAGAUAGGGGCUACAGCAAGCCAGGACUGCCCUGUGUGCUAGCAUCUCCAACAGAGGAUUGAGCAUCA
B7: chr18:38477064:38477065:+_ENSMUSG00000060450_ENSMUST00000072376|mus_mus|motif|central (ssRNA)
RNA: GGGAGUUCUACAGUCCGACGAUCGCUCUUCACAGGUUUAGAGAGCAUUCAUGAGGAAUACACUGGGCUUUUUCCGGCUCGGGUGAGGAAAUAAAGACACACACUGCUGGGAUCAACAUUAAAACUGUCCUUGCCCACAAGAGGCAACAGAGGAUUGAGCAUCA
B8: chr14:103969519:103969520:+_ENSG00000075413_ENST00000216288|hu_mus|motif|central (ssRNA)
RNA: GGGAGUUCUACAGUCCGACGAUCAUUACUGGGUUACAGCUUUAGCUCAUUGGCAAUUUUGGAAGCAAUAUUUUUGAAAGCGGUGGAUGUCCCUGAUAUCCGCUUAAACCGGACUCCAUUCAGAGACAGUCUUGGCAGCUUACACAACAGAGGAUUGAGCAUCA
B9: 19910841_19910961_2423_CDS_ENSMUSG00000027615_ENSMUST00000012580|mouse|control|control (ssRNA)
RNA: GGGAGUUCUACAGUCCGACGAUCCCUCUCAGAUAACCUCCAAACGUACUGAGAGAUGAGCUUGAAAAAGAGUUCCUCAAGUACCACAUUUGGGAGACAAGCUACGAGCUGAGCUUCCCAGAAGUCUAUCAAAAGCUGCGGAACCAACAGAGGAUUGAGCAUCA
B10: 88393090_88395398_2046_CDS_ENSMUSG00000005371_ENSMUST00000130379|mouse|control|control (ssRNA)
RNA: GGGAGUUCUACAGUCCGACGAUCUCAAAUAUUCUGUUUUUCCUUAAUACUGGAUGACUGUUAGUGCUGAUGAGGACACCUGCUUGAGCGUUCCUGAAAAUAUCAUUUUCUUCAAGGAGACCUCGACCCCCAUUAAAUAUACAGCAACAGAGGAUUGAGCAUCA
B11: chr1:213174215:213174216:-_ENSG00000174606_ENST00000366962|hu_mus|FALSE|FALSE (ssRNA)
RNA: GGGAGUUCUACAGUCCGACGAUCUGUUUUUUCUACUUUGGGAACCUGCUGUGCCUCAUAAACACAGUUCUGAGAGAUGCCUAGGUUUGGGGGCCAAAUUGGAAUAGAUAAAAUUCUUUGUCCCCGUGAAGACUGUUCCUGGCCCAACAGAGGAUUGAGCAUCA
B12: chr18:34792849:34792850:-_ENSMUSG00000024370_ENSMUST00000133181|mus_mus|FALSE|FALSE (ssRNA)
RNA: GGGAGUUCUACAGUCCGACGAUCGAUCUAUAGCACCUACUGCACAAGCUCAUUGUAGCAGACAUCAAGUGGCUCUGAAACCUAGAAAAACACAGUGAAUUCUUCAACCUUGUAGAUAAGGUUGAAAACCAAAUUGGAGACUUUCAACAGAGGAUUGAGCAUCA
B13: chr4:41496568:41496569:+_ENSG00000064042_ENST00000508501|hu_hu|FALSE|FALSE (ssRNA)
RNA: GGGAGUUCUACAGUCCGACGAUCUUUAACAAGUCCUGGCUUUAUAGCAUUCAGCAACUCGCAGAGGAGGAUUCCAUUUUCUAAACCUGUCCGAAAAUCUUUAUCACCAAAACUUCUGCCAGUUACUUGCUCAAUCCACUUCUGCAACAGAGGAUUGAGCAUCA
B14: chr8:23117756:23117757:+_ENSG00000147457_ENST00000313219|hu_hu|FALSE|FALSE (ssRNA)
RNA: GGGAGUUCUACAGUCCGACGAUCAGCUUCAAGUUCAGCAUCUGAGAUCCUAGGGUUAGGCACGCUGUUGGUAAAAUGCCUAUUGCGGGGGUUGUCAGGCAGAUCCAAAGGUUCUUUGGUGGUAUCCUGAAGGAGGAUGUCCAACAACAGAGGAUUGAGCAUCA

molecular target: T1, UNK ZnF1-3; experiment: nsRBNS (natural sequence RNA bind-n-seq); RBNS binding buffer (assumed for nsRBNS): 25 mM Tris pH 7.5, 150 mM KCl, 3 mM MgCl2, 0.01% Triton X-100, 500 ug/ml BSA, 20 U/ml SUPERase-In, 4 C; UNK is unkempt and MSI1 is Musashi-1; names of the RNAs are library labels; protein concentration not given here; high values mean tight binding

Binder	binding signal [enrichment R]
B1	0.769
B2	1.18
B3	1.68
B4	1.73
B5	0.627
B6	1.74
B7	1.17
B8	0.598
B9	1.1
B10	1.02
B11	0.849
B12	1.58
B13	1.02
B14	1.09
